Results taken from PMC10611586.
These are yes or no findings as the source states them, for the method shown.

Target: HA–Fubi-VS (C57L, from GST–3C-GS-HA–Fubi^1–73) (human) (UniProt P62861)
Assay: activity-based probe labelling (covalent conjugate), western blot; HEK293 lysate (endogenous or overexpressed Flag-tagged full-length USP) at 2 mg/ml incubated with 10 µM probe for 1 h at 37 °C; SDS-PAGE and western blotting; only the target purified

binding: no binding (tested: 10 µM probe)
Substance: Flag–USP7, full length (from UniProt Q93009 1-1102) (enzyme)
